In one test the test system is A549. Nature of the test: mean average precision of replicate retrieval against DMSO controls (Cell Painting phenotypic activity) (fraction (0-1)); higher = stronger, more reproducible morphological phenotype distinct from DMSO; extreme values may be limits of the assay. The settings on record: 5 µM.
The subject of the next test is U2OS. The description is as above. Particulars: 5 µM.

Structures are written as SMILES. This is one part of the list.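 How the source made its calls: active = permutation test q below 0.05 after Benjamini-Hochberg correction; inactive = q of 0.05 or more.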
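Further: cosine similarity of well-level aggregated Cell Painting profiles ranks each compound's replicate wells against DMSO wells, four replicate plates, significance from 100,000 rank shuffles.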

In the case of `Cc1ccc(-c2nn(C(C)(C)C)c3ncnc(N)c23)cc1`, the mean average precision with A549 (24 h), in the test with A549 (48 h), in the test with U2OS (24 h) and in the test with U2OS (48 h) was active: 1 in each case.
Turning to `C/C=C1\NC(=O)[C@H]2CSSCC/C=C/[C@H](CC(=O)N[C@H](C(C)C)C(=O)N2)OC(=O)[C@H](C(C)C)NC1=O`, the mean average precision with A549 (24 h), with A549 (48 h), with U2OS (24 h) and in the test with U2OS (48 h) was active: 1 each time.
Take `COc1ccc(/C=C/C(=O)Nc2ccccc2C(=O)O)cc1OC`: the mean average precision in the test on A549 (24 h) is active: 0.697; in the test with A549 (48 h), active: 0.851; with U2OS (24 h), active: 0.967; in the test with U2OS (48 h), inactive: 0.2.
For the compound `Cc1ccc(Sc2cncc3sc(C(N)=O)cc23)cc1`, the mean average precision with A549 (24 h) is active: 0.572; with A549 (48 h), active: 1; with U2OS (24 h), active: 1; with U2OS (48 h), active: 0.578.
For the compound `O=c1n(CCCN2CCN(c3cccc(Cl)c3)CC2)nc2ccccn12`, the mean average precision in the test on A549 (24 h) was inactive: 0.1; in the test on A549 (48 h), active: 0.785; in the test with U2OS (24 h), inactive: 0.069; in the test with U2OS (48 h), inactive: 0.0843.
In the case of `COC(=O)C1=C(C#N)NC(C)=C(C(=O)OC(C)C)C1c1cccc([N+](=O)[O-])c1` (centres undefined), the mean average precision with A549 (24 h) was active: 0.561; with A549 (48 h) it was active: 0.828; in the test with U2OS (24 h), active: 0.437; with U2OS (48 h) it was inactive: 0.297.
With `Cc1ccc(-n2sc(=O)n(Cc3ccc(F)cc3)c2=O)cc1`, the mean average precision with A549 (24 h) is inactive: 0.153; in the test with A549 (48 h) it was active: 0.451; in the test with U2OS (24 h), active: 0.38; in the test on U2OS (48 h), active: 1.
On to `CCC(c1ccc(O)cc1)C(CC)c1ccc(O)cc1` (centres undefined), for which the mean average precision with A549 (24 h) was active: 0.46; with A549 (48 h) it was active: 0.724; in the test with U2OS (24 h), active: 0.861; in the test on U2OS (48 h), inactive: 0.31.
As to `CC(C)Oc1ccc(-c2nc(-c3cccc4c3CC[C@@H]4NCCO)no2)cc1C#N`, the mean average precision in the test with A549 (24 h) was active: 0.681; with A549 (48 h), active: 1; in the test with U2OS (24 h) it was inactive: 0.367; in the test on U2OS (48 h) it was inactive: 0.265.
For `Cc1nc2n(c(=O)c1CCN1CCC(c3noc4cc(F)ccc34)CC1)CCCC2O` (centres undefined), the mean average precision is inactive: 0.302 in the test with A549 (24 h), active: 0.51 with A549 (48 h), inactive: 0.255 in the test with U2OS (24 h) and inactive: 0.224 in the test with U2OS (48 h).
In the case of `Nc1ncnc2c1c(-c1cnc3[nH]ccc3c1)nn2C1CCCC1`, the mean average precision with A549 (24 h), in the test with A549 (48 h), in the test on U2OS (24 h) and with U2OS (48 h) was active: 1 each time.
With `CC/C(=C(\c1ccc(O)cc1)c1ccc(OCCN(C)C)cc1)c1ccccc1`, the mean average precision in the test on A549 (24 h) was active: 0.759; in the test on A549 (48 h), active: 0.979; in the test on U2OS (24 h), inactive: 0.279; in the test with U2OS (48 h), inactive: 0.175.
On the same counts, the results for `CCN(CC)CCOC(=O)c1ccc(N)cc1` are inactive: 0.315, active: 0.632, active: 0.603 and active: 0.568.
On to `O=C1C(SCCO)=C(SCCO)C(=O)c2ccccc21`, for which the mean average precision in the test on A549 (24 h) was active: 0.897; in the test with A549 (48 h), active: 1; in the test with U2OS (24 h), active: 1; in the test with U2OS (48 h), active: 1.
For the compound `Cn1cc(-c2ccc3nnc(Sc4ccc5ncccc5c4)n3n2)cn1`, the mean average precision with A549 (24 h) was inactive: 0.265; in the test with A549 (48 h) it was active: 0.624; in the test on U2OS (24 h), inactive: 0.198; with U2OS (48 h), inactive: 0.155.
Take `Cc1c(C)c2c(c(C)c1O)CC[C@@](C)(CCC[C@H](C)CCC[C@H](C)CCCC(C)C)O2`: the mean average precision was inactive: 0.252 with A549 (24 h), active: 0.809 with A549 (48 h), inactive: 0.125 in the test with U2OS (24 h) and inactive: 0.184 in the test with U2OS (48 h).
Turning to `Cc1ccc(Nc2nccc(N(C)c3ccc4c(C)n(C)nc4c3)n2)cc1S(N)(=O)=O`, the mean average precision with A549 (24 h), in the test on A549 (48 h), in the test on U2OS (24 h) and in the test on U2OS (48 h) was active: 1 in each case.
With `Cc1cc(-c2ccc3c(c2)CC[C@H]3N2CC3(CCN(C(=O)Cc4cn5cc(C)sc5n4)CC3)C2)ncn1`, the mean average precision is inactive: 0.202 with A549 (24 h), active: 0.979 with A549 (48 h), active: 0.89 with U2OS (24 h) and active: 0.524 in the test with U2OS (48 h).
On to `CCCCOc1ccc(CC(=O)NO)cc1`, for which the mean average precision is active: 0.326 in the test on A549 (24 h), active: 0.5 in the test with A549 (48 h), active: 0.841 with U2OS (24 h) and active: 0.381 in the test with U2OS (48 h).
On to `Nc1nnc(Sc2ncc([N+](=O)[O-])s2)s1`, for which the mean average precision with A549 (24 h), in the test on A549 (48 h), in the test on U2OS (24 h) and with U2OS (48 h) was active: 1 in each case.
Turning to `Nc1ncn([C@@H]2O[C@H](CO)[C@@H](O)[C@H]2O)c(=O)n1`, the mean average precision with A549 (24 h) is active: 1; in the test with A549 (48 h) it was active: 1; in the test on U2OS (24 h), active: 0.99; with U2OS (48 h) it was active: 0.897.
Take `CCOC(=O)C1=C(C)NC(C)=C(C(=O)OC)C1c1cccc(Cl)c1Cl` (centres undefined): the mean average precision with A549 (24 h) was active: 0.91; in the test on A549 (48 h), active: 0.883; in the test with U2OS (24 h), inactive: 0.216; in the test on U2OS (48 h), active: 0.39.
Consider `O=C1C(CC[S+]([O-])c2ccccc2)C(=O)N(c2ccccc2)N1c1ccccc1` (centres undefined), for which the mean average precision with A549 (24 h) was inactive: 0.172; in the test on A549 (48 h) it was active: 0.459; with U2OS (24 h) it was inactive: 0.114; in the test with U2OS (48 h), inactive: 0.256.
Turning to `O=C(O)[C@@H]1CCCN1`, the mean average precision is active: 0.377 in the test with A549 (24 h), active: 0.397 in the test with A549 (48 h), active: 0.528 in the test with U2OS (24 h) and inactive: 0.294 in the test with U2OS (48 h).
Take `O=C(O)CC(O)(CC(=O)O)C(=O)O`: the mean average precision was inactive: 0.296 in the test with A549 (24 h), active: 0.332 with A549 (48 h), inactive: 0.281 in the test on U2OS (24 h) and inactive: 0.131 in the test with U2OS (48 h).
As to `O=C1NC(=O)C2(CCOc3ccc(F)cc32)N1` (centres undefined), the mean average precision in the test on A549 (24 h) is active: 0.36; in the test with A549 (48 h) it was active: 0.55; in the test with U2OS (24 h), inactive: 0.117; in the test on U2OS (48 h), inactive: 0.0837.
Take `Nc1nc(=S)c2[nH]cnc2[nH]1`: the mean average precision in the test on A549 (24 h), with A549 (48 h), in the test on U2OS (24 h) and with U2OS (48 h) was active: 1 each time.
In the case of `CC1Oc2cc(cnc2N)-c2c(nn(C)c2C#N)CN(C)C(=O)c2ccc(F)cc21` (centres undefined), the mean average precision in the test on A549 (24 h), in the test with A549 (48 h), in the test with U2OS (24 h) and with U2OS (48 h) was active: 1 in each case.
As to `NC(CSSCC(N)C(=O)O)C(=O)O` (centres undefined), the mean average precision was inactive: 0.13 in the test on A549 (24 h), inactive: 0.259 in the test with A549 (48 h), inactive: 0.127 with U2OS (24 h) and inactive: 0.0729 in the test with U2OS (48 h).
Regarding `CC1(C)C(=O)N=C2c3ccccc3C(=O)C(=O)C21` (centres undefined), the mean average precision with A549 (24 h) is active: 0.752; in the test on A549 (48 h) it was active: 0.863; in the test with U2OS (24 h), active: 1; with U2OS (48 h), active: 1.
On to `O=C1CCc2cc(OCCCCc3nnnn3C3CCCCC3)ccc2N1`, for which the mean average precision in the test with A549 (24 h) was active: 0.728; in the test on A549 (48 h), active: 0.594; in the test on U2OS (24 h) it was active: 0.808; in the test on U2OS (48 h) it was active: 0.889.

(Values after the supplement of paper PMC11166567.)
